The test deals with Recombinant His-OGG1 (UniProt O15527). Nature of the test: pull-down; reverse pull-down: His-OGG1 used to pull down GST-MSK1 and its mutants (Fig. S5B); both purified.

Protein sequences, listed by entry. Tags and fused reporters are not part of them.
UniProt O15527: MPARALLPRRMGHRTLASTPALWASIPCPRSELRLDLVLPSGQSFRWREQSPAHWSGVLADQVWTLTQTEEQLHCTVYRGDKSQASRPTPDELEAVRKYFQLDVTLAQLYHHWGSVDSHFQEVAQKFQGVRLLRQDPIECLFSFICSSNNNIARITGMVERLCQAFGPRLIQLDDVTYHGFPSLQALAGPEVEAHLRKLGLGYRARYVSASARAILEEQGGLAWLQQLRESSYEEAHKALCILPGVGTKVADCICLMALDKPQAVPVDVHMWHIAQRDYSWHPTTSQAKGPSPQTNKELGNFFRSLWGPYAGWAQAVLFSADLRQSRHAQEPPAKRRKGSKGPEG

Data on one molecule can be found in paper PMC10641171.

No constants are given. Whether binding was seen depends on the method and setting. Where a sequence is shown, tags or fusion partners need not be part of it.

B1: GST-MSK1 330-803 (domain or fragment, UniProt O75582 330-802)
chain: KVPAPFKPVIRDELDVSNFAEEFTEMDPTYSPAALPQSSEKLFQGYSFVAPSILFKRNAAVIDPLQFHMGVERPGVTNVARSAMMKDSPFYQHYDLDLKDKPLGEGSFSICRKCVHKKSNQAFAVKIISKRMEANTQKEITALKLCEGHPNIVKLHEVFHDQLHTFLVMELLNGGELFERIKKKKHFSETEASYIMRKLVSAVSHMHDVGVVHRDLKPENLLFTDENDNLEIKIIDFGFARLKPPDNQPLKTPCFTLHYAAPELLNQNGYDESCDLWSLGVILYTMLSGQVPFQSHDRSLTCTSAVEIMKKIKKGDFSFEGEAWKNVSQEAKDLIQGLLTVDPNKRLKMSGLRYNEWLQDGSQLSSNPLMTPDILGSSGAAVHTCVKATFHAFNKYKREGFCLQNVDKAPLAKRRKMKKTSTSTETRSSSSESSHSSSSHSHGKTTPTKTLQPSNPADSNNPETLFQFSDSVA
With B1, the binding entry is recorded as “no binding”.
